# From PubChem BioAssay (NCI)
# Values joined by “and” are separate entries in the source; they are usually repeats but may differ in a detail not shown here. Equal values may be shown once.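 Grown in 96-well plates, cells were treated for 48 hours with each compound at five concentrations. Insufficient inhibition: endpoint recorded as highest concentration tested. At the GI50, growth is halved. At the TGI there is no net growth.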
# Tested on: NCI-H322M lung
# Assay: DTP human tumour cell line panel, 48 h
SMILES,TGI,GI50
CC1(O)C=CC(=O)C=C1,> 59 µM,
CCCc1c(-c2ccccc2)[nH]c2ccccc2c1=O,> 100 µM,
CC(=O)Oc1cc2c(cc1OC(C)=O)OCC(c1ccccc1)C2 (stereo unspecified),64.5 µM,
Cc1cc(S(=O)(=O)/N=C(/N)Nc2ccccc2O)c(SCc2ccccc2)cc1Cl,36.8 µM,19.1 µM
CN1CCN(C(=O)c2cc(-c3ccc4ncnc(N5CCc6cc(F)c(Cl)cc65)c4c3)cnc2N)CC1,3.04 µM,0.269 µM
CC1(/C=C/CCSc2ccccc2)CC(=O)C2CC1C2(C)C (stereo unspecified),> 100 µM,
Cc1c(/C=N/N=C/c2[nH]c(C(=O)OC(C)(C)C)c(C)c2C)[nH]c(C(=O)OC(C)(C)C)c1C,> 100 µM,
COC(=O)C1(C)CCc2c(OC)ccc(OC)c2C1=O (stereo unspecified),> 100 µM,
O=C(c1ccccc1)c1ccc2nc(-c3c(Cl)c(Cl)c(Cl)c(Cl)c3C(=O)N/N=C/c3ccc(Cl)cc3)[nH]c2c1,> 100 µM,
CC(C)C[C@H](NC(=O)CNC(=O)c1cc(Cl)ccc1Cl)B1OC(=O)CC(CC(=O)O)(C(=O)O)O1 (stereo partly specified),67.4 µM,5.33 µM
O=C1C=CC2(C=C1)O[C@H](Cc1ccccc1)[C@@H](Cc1ccccc1)O2,26.1 µM,
O=c1nc(NC2CCCCO2)ccn1CCO (stereo unspecified),> 100 µM,
C=CCN1C(=O)/C(=C/c2cccs2)N=C1SC/C=C/C,> 100 µM,
CCOC(=O)c1c(C)nc2c1c(CN(C)C)c(O)c1[nH]c(C)c(C)nc12,> 100 µM,
COc1cc(C(=O)C/C(CCC(=O)Nc2ccccc2[N+](=O)[O-])=N\NC(N)=O)ccc1O,> 100 µM,
COc1nc(=O)n(COC(CO)CN2C(=O)c3ccccc3C2=O)cc1Cc1cccc(OCc2ccccc2)c1 (stereo unspecified),77.7 µM,
O=C(NC1CCCCC1)NS(=O)(=O)c1ccc2c(c1)CCC2,> 100 µM,
COc1cc2c(cc1OCCCn1c(-c3ccccn3)nc3ccccc31)N=C[C@@H]1CCCN1C2=O,> 26.1 µM,3.5 µM
C[C@]12CC[C@@H]3c4cc(OCC(F)(F)F)c(O)cc4CC[C@H]3[C@@H]1CC[C@@H]2O,14.1 µM,
Cc1ccc(/C=N\NC(=O)c2[nH]c3ccc(F)cc3c2-c2ccccc2)cc1,> 51.8 µM,0.053 µM
Cn1c(=O)c2c(nc3n2CC(=O)N3CCCCl)n(C)c1=O,> 100 µM,
Oc1ccc(-c2cc(-c3cc(-c4ccc(O)cc4)no3)on2)cc1,> 100 µM,
CCC1(c2ccccc2)C(=O)N=C(c2ccccc2)N1CCc1ccccc1 (stereo unspecified),> 100 µM,
CC(=O)OC12C=C(C)C(C(C)C1)C1C(=O)N(CCN3CCOCC3)C(=O)C12 (stereo unspecified),> 100 µM,> 100 µM
COc1cc2c(cc1C1COc3cc4occc4cc3C1=O)OCO2 (stereo unspecified),> 100 µM,

SMILES,TGI,GI50
O=C(NC1CCCCC1NC(c1ccccc1)(c1ccccc1)c1ccccc1)C(=O)NC1CCCCC1NC(c1ccccc1)(c1ccccc1)c1ccccc1 (stereo unspecified),> 100 µM,
CC(C)(C)OC(=O)N/N=C(/N)Cc1ccc(Cl)cc1,> 100 µM,
O=C1c2cccnc2C(=O)c2c1c(C(=O)NCCCN1CCCCC1)c1ccccn21,5.81 µM,0.997 µM
CCCCCCCCCCCCCCCCCC[n+]1ccc2c(C)c3c(c(C)c2c1)c1cc(O)ccc1n3CC,19.7 µM,3.58 µM
OCc1ccc(N2CCCC2c2ccccc2)cc1Cl (stereo unspecified),15.6 µM,3.11 µM
CCn1c2ccccc2c2ccc3c(c21)C(=O)C=CC3=O,65.2 µM,
O=C1NC(=O)C2C(=O)NC(=O)C1C2c1c(Cl)cccc1Cl (stereo unspecified),> 100 µM,
NC(N)=NCCCC(NC(=O)c1cccc2c(=O)c3ccccc3[nH]c12)C(=O)O (stereo unspecified),> 100 µM,
OCC12C3C4C5C3C1C5C42 (stereo unspecified),> 100 µM,
CCCCCCCCCCCCCCCCCC1=NCCN1CCOC1=C(Cl)C(=O)c2ccccc2C1=O,12 µM,3.5 µM
C1CCC([PH+](C2CCCCC2)C2CCCCC2[PH+](C2CCCCC2)C2CCCCC2)CC1.[Au].[CH-]1CCCCC1CC1CCCC[N-]1 (stereo unspecified),1.38 µM,0.364 µM
CCOC(=O)C1=NOC2(C=C(Br)C(=O)C(Br)=C2)C1,30.1 µM,
COc1ccc2c(c1)N(CCO)C1=C(C(=O)OC1)C2c1cccc(F)c1 (stereo unspecified),> 50 µM,2.01 µM
C/C(=N\Nc1ccc([N+](=O)[O-])cc1[N+](=O)[O-])c1sc(-n2nc(-c3ccccc3)cc2-c2ccccc2)nc1C,> 100 µM,
CC(=O)C1C(=O)C(=O)N(c2cccc([N+](=O)[O-])c2)C1=O (stereo unspecified),> 100 µM,
NCCSS(=O)(=O)CCN,> 100 µM,
CN(C)c1ccc(NN=C2SC(=Nc3ccccc3)C(=Nc3ccccc3)S2)cc1,> 100 µM,
Cc1ccccc1-n1c(=O)c2ncn(C3CCCO3)c2n(-c2ccccc2C)c1=S (stereo unspecified),> 100 µM,
c1ccc2c(c1)C1CCCCCC21N1CCOCC1 (stereo unspecified),> 100 µM,
CC(C)(C)c1cc2c(OC/C=C/c3ccccc3)c(c1)Cc1cc(C(C#N)(OC/C=C/c3ccccc3)OC/C=C/c3ccccc3)cc(c1OC/C=C\c1ccccc1)Cc1cc(C(C)(C)C)cc(c1OC/C=C/c1ccccc1)Cc1cc(C(C#N)(OC/C=C\c3ccccc3)OC/C=C/c3ccccc3)cc(c1OC/C=C\c1ccccc1)C2 (stereo unspecified),> 100 µM,
O=C(NC1=C(Cl)C(=O)c2ccccc2C1=O)c1ccc(F)cc1,27.8 µM,
CCc1ccc2c(c1)N(CCO)C1=C(C(=O)OC1)C2c1cccc(Br)c1 (stereo unspecified),20.1 µM,1.67 µM
CC(=O)Nc1ccc(SC#N)c2c(NC(C)=O)cccc12,> 100 µM,
CC(C)NCCCn1c(Sc2cc3c(cc2I)OCO3)nc2c(N)ncnc21,,0.171 µM
COc1ccc(CC2(O)C3CC4CCC2C4C3)cc1 (stereo unspecified),> 100 µM,

SMILES,TGI,GI50
Cc1[nH]c2ccccc2c1C(=O)CC1(O)C(=O)Nc2c(Cl)cc(Cl)cc21 (stereo unspecified),> 100 µM,
O=C1/C(=C/c2ccccc2[N+](=O)[O-])Cc2ccccc21,32.7 µM,5.52 µM
C=CC(=O)Nc1cccc(Oc2nc(Nc3ccc(N4CCN(C)CC4)cc3)nc3ccsc23)c1,> 10 µM and 14.4 µM,0.512 µM and 1.31 µM
N#CC1(C(N)=O)C(c2ccc(Cl)cc2)CC(=O)CC1c1ccc(Cl)cc1 (stereo unspecified),39.1 µM,17.3 µM
N#CC(C#N)=C1NC(=O)CC(=O)N1,> 100 µM,
CN(N=O)C(=O)ON1C(=O)CCC1=O,> 100 µM,
COc1ccc(-c2[nH]c3ccccc3c2-c2ccc(OC)cc2)cc1,40.3 µM,13.2 µM
O=C(Nc1nc2ccc([N+](=O)[O-])cc2s1)C(=O)C(C(=O)c1ccccc1F)C1OC(=O)c2ccccc21 (stereo unspecified),> 100 µM,
O=[N+]([O-])c1nccn1CCCNc1ccnc2cc(Cl)ccc12,> 100 µM,
OCC1OC(n2cnc3c(N/N=C\c4ccccn4)ncnc32)C(O)C1O (stereo unspecified),4.81 µM,0.135 µM
COC1=CC(=O)C2=C(C1=O)[C@H]1CC[C@]3(C)[C@@H](O)CC[C@H]3[C@@H]1CC2,30.4 µM,
CCCP1(=O)C=C(C)C(=C(Cl)Cl)C(C)=C1 (stereo unspecified),> 100 µM,
CS(=O)(=O)OCC1CN(S(C)(=O)=O)c2cc(O)ccc21 (stereo unspecified),30.4 µM,
CCN(CC)CC1CCCCN1CC(=O)N1c2ccccc2C(=O)Nc2cccnc21 (stereo unspecified),> 100 µM,
Cc1ccc(NC(Nc2ccc(C)cc2C)=C(/C=C(\Cl)[N+](=O)[O-])[N+](=O)[O-])c(C)c1,29.2 µM,
O=C(OCc1ccc2ccccc2n1)c1cn(C2CC2)c2cc(N3CCN(Cc4ccc5ccccc5n4)CC3)c(F)cc2c1=O,> 100 µM,> 81.2 µM
CNCCCNCCCCNCCCN1C(=O)c2ccc3c4c(ccc(c24)C1=O)C(=O)N(CCCNCc1ccccc1OC)C3=O,24.6 µM,2.21 µM
O=[N+]([O-])c1ccc(C=Cc2ccccc2)cc1.[C-]#[O+].[C-]#[O+].[C-]#[O+].[Cr],> 100 µM,27.3 µM
Clc1ccc(Nc2nc3ccccc3nc2-c2cccs2)cc1Cl,> 100 µM,
COC1/C=C/C(C)C(C(C)C(OC)C(C)CCC(=O)C(C)C(C/C=C/N(C)C=O)OC)OC(=O)C=CC2OC2(C)CC(OC)C(OC)C2=CC(=O)O[C@@H](C(C)C(OC)CC(OC)/C=C/C(C)C(O)C1)[C@H]2O (stereo partly specified),0.0564 µM,
CCN1CCC(C)OP1(=O)Cc1ccccc1 (stereo unspecified),> 100 µM,
NC(CSC1c2ccccc2-c2ccccc21)C(=O)O (stereo unspecified),> 100 µM,
CC(=O)/C=C/c1cn(C(=O)OC(C)(C)C)c2ccc(Br)cc12,30.6 µM,15.4 µM
COc1cc2c(c(OC)c1OC)-c1ccc(SC)c(=O)cc1C(NC(=O)c1ccccc1)CC2 (stereo unspecified),2.3 µM,
Cc1n[nH]c(=O)n1N1C(=O)CCCC1=O,> 100 µM,

SMILES,TGI,GI50
COc1cc2nc(N3CCCC3)nc(NCCc3ccccc3)c2cc1OC,5.54 µM,2.21 µM
O=C(O)CN1CCN(CC(=O)O)CC(=O)[O][Hg][O]C(=O)C1,> 100 µM,> 75.3 µM
O=C(CSc1nnc(Cc2ccccc2)o1)Nc1ccccc1,> 100 µM,
O=C(O)c1ccc(C(=O)c2ccccc2)c(C(=O)O)c1,> 100 µM,
CCOC(=O)/C(C=Nc1c(C)n(C)n(-c2ccccc2)c1=O)=C(/C)O,> 100 µM,
O=c1ssc(=Nc2ccccc2)n1-c1ccccc1,> 100 µM,
CC1CC(C)C(C#N)N(C)c2ccccc21 (stereo unspecified),> 100 µM,
O=C(/C=C/c1ccccc1)CCN1CCOCC1,50.4 µM,
O=C1OCC2=C1C(c1ccc(Cl)c(Cl)c1)c1cc3c(cc1N2CCO)OCCO3 (stereo unspecified),> 50 µM,0.585 µM
C/C(=C\c1ccc2ccccc2c1)[N+](=O)[O-],14.2 µM,3.96 µM
O=C(/C=C/c1cc2ccccc2[nH]c1=O)/C=C/c1cc2ccccc2[nH]c1=O,> 100 µM,> 100 µM
CCOc1ccccc1C(=O)N1CCN(c2cc(Cl)cc(Cl)c2)CC1,18.7 µM,0.0706 µM
Nc1ccn(C2C=C(CO)C(O)C2O)c(=O)c1 (stereo unspecified),> 625 µM,
CC1=NNC(=O)C1C1CC(c2c[nH]c3ccccc23)=NNC1=O (stereo unspecified),> 100 µM,
CC1=NC(=Cc2cccc(Cl)c2)C(=O)N1n1c(-c2ccccc2)nc2ccccc2c1=O,94.3 µM,
NC(N)=NCC[C@H](NC(=O)OCCCCCn1ccc(=O)[nH]c1=O)C(=O)O,> 100 µM,
COc1cc2c3c(c1)CCCN3CCC2,> 10 µM,
COC(=O)[C@@H]1CC(C(C[N+](=O)[O-])c2ccc(O[Si](C)(C)C(C)(C)C)cc2)C(=O)N1C(=O)OC(C)(C)C (stereo partly specified),> 100 µM,
CC1=C2[C@@H](CC1)[C@]1(C)O[C@@](c3ccccc3)(C[C@H]1OC(=O)CO)[C@H]2OC(=O)/C=C/c1ccccc1,50.1 µM,19.5 µM
COC(=O)[C@H](CCSC)NC(=O)N[C@H](C)c1ccccc1,> 100 µM,
COc1cc(/C=C/c2nc(NC(=S)Nc3ccccc3)nnc2C)cc(OC)c1OC,> 100 µM,
O=C1OC(Cc2ccccc2)(N2CCCC2=O)C1c1ccccc1 (stereo unspecified),> 100 µM,
